Source: PubChem BioAssay AID1259400 (National Center for Advancing Translational Sciences (NCATS), 2018)
Screen size: about 350,000 compounds; about 2,100 (0.6%) were called active. This list was built around the results that the source calls inconclusive (neither active nor inactive); the mix of calls is not that of the screen.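 How the source made its calls: active means activity change of -60% or lower, but not beyond a set lower limit; inconclusive means change between -60% and -40%, or beyond the set limit; inactive means change above -40%.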
On the % scale 0 is the no-effect control and ±100 the full control effect.

The compounds below were run against Relaxin receptor 1 (Homo sapiens) (UniProt Q9HBX9) (assay: qHTS Assay for Antagonists of the Relaxin Receptor RXFP1). Settings: HEK293-RXFP1, relaxin-stimulated cAMP HTRF, 30 min; at 57.5 µM; active compounds read low.
UniProt Q9HBX9, sequence (Q9HBX9 whole entry, looked up): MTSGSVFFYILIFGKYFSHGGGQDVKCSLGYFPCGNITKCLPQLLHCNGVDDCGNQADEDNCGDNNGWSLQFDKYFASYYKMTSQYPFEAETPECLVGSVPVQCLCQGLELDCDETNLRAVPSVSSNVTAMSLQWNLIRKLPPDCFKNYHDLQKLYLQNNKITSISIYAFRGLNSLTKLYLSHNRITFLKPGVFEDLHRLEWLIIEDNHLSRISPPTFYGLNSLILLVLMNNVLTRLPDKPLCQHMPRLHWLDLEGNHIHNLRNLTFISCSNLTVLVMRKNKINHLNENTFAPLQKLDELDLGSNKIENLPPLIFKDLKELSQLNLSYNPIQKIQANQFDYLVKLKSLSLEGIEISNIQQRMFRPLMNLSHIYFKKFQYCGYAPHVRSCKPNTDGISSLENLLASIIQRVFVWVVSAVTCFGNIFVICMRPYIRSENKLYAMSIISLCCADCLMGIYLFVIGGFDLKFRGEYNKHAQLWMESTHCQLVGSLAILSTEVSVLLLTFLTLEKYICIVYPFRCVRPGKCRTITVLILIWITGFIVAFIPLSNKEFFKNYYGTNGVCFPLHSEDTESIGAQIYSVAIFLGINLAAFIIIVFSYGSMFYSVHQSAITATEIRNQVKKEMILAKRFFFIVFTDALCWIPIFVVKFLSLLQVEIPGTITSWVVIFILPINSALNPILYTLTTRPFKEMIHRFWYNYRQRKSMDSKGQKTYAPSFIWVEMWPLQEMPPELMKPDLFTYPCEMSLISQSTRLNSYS
For COC(=O)c1ccc(C2C=C(c3ccc(Cl)cc3)Nc3nc4ccccc4n32)cc1 (stereo not given), the activity change, negative = inhibition was inactive: -14%.
O=S(=O)(c1ccc(OC(F)(F)F)cc1)N1CCCC(c2ccccc2)C1 (stereo not given) was tested, and the activity change, negative = inhibition was inactive: 0.728%.
In the case of N=c1c2c(-c3ccccc3)c(-c3ccccc3)oc2ncn1CCN1CCOCC1, the activity change, negative = inhibition is reported as inconclusive: -53.6%.
With O=C(CCn1c(=S)[nH]c2ccccc2c1=O)NCCSCc1ccccc1 the activity change, negative = inhibition was inconclusive: -48.9%.
In the case of Cc1ccc(-n2ncc3c(N4CCCCCC4)ncnc32)cc1C, the activity change, negative = inhibition is reported as inactive: 0.694%.
With Cc1onc(-c2ccccc2Cl)c1C(=O)NNC(=O)c1nn(C)cc1Cl the activity change, negative = inhibition was inconclusive: -46.8%.
With Cc1ccc(NC(=O)c2nc(S(=O)(=O)Cc3ccccc3)ncc2Cl)cc1 the activity change, negative = inhibition was active: -84.7%.
In the case of COc1cccc(CC(=O)N2CCC(n3nccc3NC(=O)C3CC3)CC2)c1, the activity change, negative = inhibition is reported as inactive: -15.9%.
CN=c1scc(-c2ccc(OC)cc2)n1/N=C(\C)c1cccnc1 was tested, and the activity change, negative = inhibition was inconclusive: -42.2%.
In the case of C/C(CC(=O)NC1CCCCC1)=N\NC(=O)c1ccccn1, the activity change, negative = inhibition is reported as inconclusive: -47.7%.
In the case of CN1CCN(C2Cc3ccccc3Sc3cc(C(F)(F)F)ccc32)CC1 (stereo not given), the activity change, negative = inhibition is reported as inconclusive: -57.1%.
Cc1ccc(C)c(N(C)S(=O)(=O)c2ccc3[nH]cc(C(=O)NC4CCCC4)c(=O)c3c2)c1 was tested, and the activity change, negative = inhibition was inconclusive: -47.2%.
For O=C(COC(=O)c1cccc2c1C(=O)c1ccccc1C2=O)NC1CCCCC1, the activity change, negative = inhibition was inconclusive: -43%.
For O=C(OCc1ccc([N+](=O)[O-])cc1)C1CC(=O)N(CCc2ccccc2)C1 (stereo not given), the activity change, negative = inhibition was inconclusive: -56.9%.
For COc1ccc(/C=C2/CCC(CN3CCOCC3)C2=O)cc1 (stereo not given), the activity change, negative = inhibition was inconclusive: -56.6%.
CC(c1ccccc1)N(CCC(c1ccccc1)C1CCOC(C)(C)C1)C(=O)c1ccco1 (stereo not given) was tested, and the activity change, negative = inhibition was inconclusive: -41.9%.
For COc1ccc(N2C3=C(CC4=C2CC(C)(C)CC4=O)C(=O)CC(C)(C)C3)cc1, the activity change, negative = inhibition was inactive: 24.2%.
In the case of COc1cccc(-c2cc(C(=O)Nc3ccc(F)cc3)[nH]n2)c1, the activity change, negative = inhibition is reported as inactive: -16.8%.
With CC(C)c1nnc(NC(=O)CCC(=O)N2CCN(c3cccc(Cl)c3)CC2)s1 the activity change, negative = inhibition was inconclusive: -42.1%.
N#Cc1sc2nc(-c3ccccc3)cc(-c3ccco3)c2c1N was tested, and the activity change, negative = inhibition was inconclusive: -44.4%.
In the case of C/C(=N\NS(=O)(=O)c1ccccc1)c1ccccc1, the activity change, negative = inhibition is reported as inconclusive: -45.5%.
In the case of CC(C)(C)c1ccc(/C=N/OCC(=O)NCc2ccccc2)cc1, the activity change, negative = inhibition is reported as inconclusive: -53.9%.
In the case of CCc1ccc(NC(=O)c2cc3c(C)nc4ccccc4c3o2)cc1, the activity change, negative = inhibition is reported as inconclusive: -45.7%.
With COc1ccc(-n2nc3c(c2NC(=O)C(=O)NCc2ccccc2)CSC3)cc1 the activity change, negative = inhibition was inconclusive: -55.1%.
O=C(O)CCn1cc(/C=C/C(=O)c2ccc(Cl)cc2)c(-c2cccc(Br)c2)n1 was tested, and the activity change, negative = inhibition was inconclusive: -48.5%.
In the case of CCN(CC)S(=O)(=O)c1ccc(O)c(NC(=O)c2cc(-c3cc(OC)c(OC)c(OC)c3)nc3ccccc23)c1, the activity change, negative = inhibition is reported as inconclusive: -41.8%.
With Cc1cc(O)c(C(c2ccccc2)N2CCN(c3ccccc3F)CC2)c(=O)n1Cc1ccco1 (stereo not given) the activity change, negative = inhibition was inactive: -24.2%.
For CCOC(=O)N/N=C\c1ccc([N+](=O)[O-])o1, the activity change, negative = inhibition was inactive: 2.07%.
In the case of Cc1ccc(C)c(OCc2cc(C(=O)N3C[C@@H](C)O[C@@H](C)C3)no2)c1, the activity change, negative = inhibition is reported as inactive: -3.8%.
In the case of Cc1ccc(CN2C(=O)C(C)Oc3ccccc32)cc1 (stereo not given), the activity change, negative = inhibition is reported as inconclusive: -54.9%.
In the case of Oc1c(Br)cc(Br)cc1/C=N/c1nc2c(s1)CCCC2, the activity change, negative = inhibition is reported as inactive: -37.2%.
For O=C(COc1ccccc1)NCC(=O)N/N=C/c1cc(Br)ccc1OCc1ccccc1, the activity change, negative = inhibition was inactive: -10.6%.
In the case of Cc1ccc(S(=O)(=O)N2CCCCC2)cc1NC(=O)Cn1ncc(Cl)c(Cl)c1=O, the activity change, negative = inhibition is reported as inconclusive: -57%.
With CCOc1ccccc1NS(=O)(=O)c1cc2c3c(c1)C(C)C(=O)N3CCC2 (stereo not given) the activity change, negative = inhibition was inconclusive: -46.6%.
With COc1ccc(-c2csc(NS(=O)(=O)c3ccc([N+](=O)[O-])cc3)n2)cc1 the activity change, negative = inhibition was inactive: -9.93%.
In the case of C#CCN1C(=O)S/C(=C\c2ccc(N3CCOCC3)cc2C)C1=O, the activity change, negative = inhibition is reported as inconclusive: -42.9%.
With O=C1CCCc2ccccc2N1Cc1c(Cl)cccc1Cl the activity change, negative = inhibition was inconclusive: -48%.
COC(=O)c1cc(C)nc(Sc2ccccc2N)n1 was tested, and the activity change, negative = inhibition was inconclusive: -49.7%.
For COc1ccc(-c2csc(N3C(=N)SCC3=O)n2)cc1, the activity change, negative = inhibition was inconclusive: -44.7%.
CCOc1ccc(CN2CCC(C(=O)Nc3cccc(-c4ccn[nH]4)c3)CC2)cc1Cl was tested, and the activity change, negative = inhibition was inconclusive: -40.4%.
CCOC(=O)C1(CCOc2ccccc2)CCN(Cc2cnc(SC)nc2)CC1 was tested, and the activity change, negative = inhibition was inactive: -10.7%.
In the case of NNC(=O)/C(=N/Nc1ccccc1)S(=O)(=O)c1ccc(Cl)cc1, the activity change, negative = inhibition is reported as inconclusive: -54.4%.
For C=CCOc1ccccc1C(=O)/C=C1/C(=O)Nc2ccccc21, the activity change, negative = inhibition was inconclusive: -42.7%.
With O=C1C=C(N2CCCCCC2)C2(CCCCC2)O1 the activity change, negative = inhibition was active: -61.4%.
In the case of CCN(CC)S(=O)(=O)c1ccc(C(C)NCC(=O)Nc2ccccc2C(=O)NC2CC2)cc1 (stereo not given), the activity change, negative = inhibition is reported as inconclusive: -44.3%.
With CC(=O)Nc1ccc(-c2csc(Nc3cccc(C)n3)n2)cc1 the activity change, negative = inhibition was inconclusive: -53.5%.
Cc1cc2c(cc1S(=O)(=O)Nc1cccc(C)c1C)OCC(=O)N2 was tested, and the activity change, negative = inhibition was inactive: 10.2%.
With OCCC1CN(CC#Cc2ccccc2)CCN1C1CCCC1 (stereo not given) the activity change, negative = inhibition was inactive: 1.54%.
c1ccc(-c2noc(-c3ccc4c(c3)OCO4)n2)nc1 was tested, and the activity change, negative = inhibition was inactive: 10.1%.
For CCS(=O)(=O)c1ncc(Cl)c(C(=O)Nc2ccc(C)cc2)n1, the activity change, negative = inhibition was active: -78.3%.
CCCOc1ccc(-c2c(C(=O)N/N=C(\C)c3ccncc3)nnn2-c2nonc2N)cc1 was tested, and the activity change, negative = inhibition was inconclusive: -40.3%.
With O=[N+]([O-])c1c(NCCO)cc(Sc2nc3ccccc3s2)c2nonc12 the activity change, negative = inhibition was active: -71%.
In the case of CCOCCCNC(=O)c1ccc(-n2c(=S)[nH]c3ccccc3c2=O)cc1, the activity change, negative = inhibition is reported as active: -89.7%.
In the case of CC(C)Cn1c(=O)c2sccc2n2c(CCCC(=O)NCCc3ccccc3)nnc12, the activity change, negative = inhibition is reported as inactive: -3.54%.
With Fc1ccc(C2c3cccn3CCN2C(=S)Nc2cccc(Br)c2)cc1 (stereo not given) the activity change, negative = inhibition was inconclusive: -43.2%.
